Experimental data published in PubChem BioAssay AID881 (National Center for Advancing Translational Sciences (NCATS), 2007).
About 610 (0.55%) of roughly 110,000 compounds were called active. Inconclusive means that the source gave no clear call. Such entries were picked first, then a sample of the others. The call rests on the fitted dose curve; in most records, active means well fitted inhibition curve with a large enough effect; inconclusive means small, poorly fitted or top-dose-only effect; inactive means no such curve, though single readings can be large or run the other way. Where the call is inconclusive, the potency comes from a doubtful curve fit.
Further: nearly all actives have a fitted effect of over 60% in size.
On the % scale 0 is the no-effect control and ±100 the full control effect; potency means the concentration at half of the fitted maximal effect; tags describe the fitted curve by direction and shape.

Each molecule was assayed against Polyunsaturated fatty acid lipoxygenase ALOX15B (Homo sapiens) (UniProt O15296) (assay: qHTS Assay for Inhibitors of 15-hLO-2 (15-human lipoxygenase 2)). Details: purified 15hLO-2, xylenol orange hydroperoxide absorbance; activity change, negative = inhibition: at 57.1 µM (top of the series) unless noted.
UniProt O15296, sequence (O15296 whole entry, looked up): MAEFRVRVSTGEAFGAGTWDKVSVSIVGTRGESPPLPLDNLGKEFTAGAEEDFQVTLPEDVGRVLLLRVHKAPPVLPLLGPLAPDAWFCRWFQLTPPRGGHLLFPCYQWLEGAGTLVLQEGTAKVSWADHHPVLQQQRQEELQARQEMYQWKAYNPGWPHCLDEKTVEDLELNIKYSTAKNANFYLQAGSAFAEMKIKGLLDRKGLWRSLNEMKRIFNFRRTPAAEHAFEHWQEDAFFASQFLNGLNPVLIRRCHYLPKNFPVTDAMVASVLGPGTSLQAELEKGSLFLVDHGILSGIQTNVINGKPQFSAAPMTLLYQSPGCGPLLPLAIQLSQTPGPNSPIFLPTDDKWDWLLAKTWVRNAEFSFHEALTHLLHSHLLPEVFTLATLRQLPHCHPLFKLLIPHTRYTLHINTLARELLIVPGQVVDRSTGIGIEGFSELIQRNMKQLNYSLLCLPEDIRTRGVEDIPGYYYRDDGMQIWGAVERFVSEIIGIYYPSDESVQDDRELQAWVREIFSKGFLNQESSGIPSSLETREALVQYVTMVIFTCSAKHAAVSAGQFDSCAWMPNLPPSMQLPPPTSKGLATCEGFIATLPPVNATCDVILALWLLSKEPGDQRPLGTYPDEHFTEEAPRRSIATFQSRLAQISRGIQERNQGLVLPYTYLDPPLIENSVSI
Summary of the method: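 Read-out: hydroperoxide product oxidises ferrous iron, measured as xylenol orange complex via the 573-to-405 nm absorbance ratio after 30 min. Reaction: 50 nM enzyme, 15 min compound preincubation, 45 uM arachidonic acid, 90 min RT, Hepes pH 7.5 with Triton X-100.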
For Cc1ccc(NC(=S)NC(NC(=O)c2ccco2)C(Cl)(Cl)Cl)cc1 (stereo unspecified), the Potency was inconclusive: 15.8 µM [inhibitor, partial curve]. With Cc1nn2c(c1-c1ccccc1)N=C(c1ccco1)CC2c1ccccc1 (stereo unspecified) the Potency was inconclusive: 25.1 µM [inhibitor, single point]. COc1cc(O)c(C(=O)/C=C/c2ccc(OC)c(O)c2)c(OC)c1 was tested, and the Potency was inconclusive: 12.6 µM [inhibitor, partial curve]. For Cc1cccc(C(=O)N=c2c(C#N)cc3c(=O)n4cccc(C)c4nc3n2Cc2ccco2)c1, the Potency was inconclusive: 15.8 µM [inhibitor, partial curve]. O=C(NCc1ccco1)c1ccc(=O)oc1 was tested, and the Potency was “inactive”. With COc1cc(C)c(C(C)C)cc1S(=O)(=O)NCCCn1ccnc1 the Potency was inconclusive: 31.6 µM [inhibitor, single point]. In the case of CCCOc1ccc(N2C(=O)C3ON(c4ccccc4)C(c4ccc(O)c(OC)c4)C3C2=O)cc1 (stereo unspecified), the Potency was inconclusive: 31.6 µM [inhibitor, single point]. O=C(O)c1cc(C(=O)C(=O)c2cc(C(=O)O)c(O)c3ccccc23)c2ccccc2c1O was tested, and the Potency was inconclusive: 3.98 µM [inhibitor, single point]. For COc1ccccc1C(=O)NC(=S)N1CCCc2ccccc21, the Potency was inconclusive: 12.6 µM [inhibitor, partial curve]. O=C=Nc1ccc(Cc2ccc(N=C=O)cc2)cc1 was tested, and the Potency was “inactive”. With COc1ccccc1-c1cn[nH]c(=S)n1 the Potency was inconclusive: 10 µM [inhibitor, single point]. For N#C/C(=C\c1ccc(O)c(O)c1)C(=O)Nc1ccccc1, the Potency was inconclusive: 31.6 µM [inhibitor, partial curve, poor fit]. For COc1ccc(CCNc2nnc(Sc3nnnn3-c3ccccc3)s2)cc1OC, the Potency was “inactive”. In the case of COc1cccc(-n2nnc3c(=O)n(CC(=O)NC4CCCC4)cnc32)c1, the Potency was “inactive”. With COc1ccc(CN2C(=O)c3cccnc3C2Nc2cc(Cl)ccc2OC)cc1 (stereo unspecified) the Potency was inconclusive: 25.1 µM [inhibitor, single point]. Cc1[nH]n(-c2ccccc2)c(=O)c1S(=O)(=O)c1ccccc1 was tested, and the Potency was inconclusive: 25.1 µM [inhibitor, single point]. With c1cc(Nc2ncnc3sccc23)cc(-c2nnc3n2CCCCC3)c1 the Potency was “inactive”. With CC1(C)C(c2ccccc2)=NC(c2ccc(F)cc2)N1O (stereo unspecified) the Potency was inconclusive: 10 µM [inhibitor, partial curve]. Cc1ccc(C2N(c3nccs3)C(=O)C3CCCN32)cc1 (stereo unspecified) was tested, and the Potency was inconclusive: 3.98 µM [inhibitor, full curve, poor fit]. With Oc1ccc(C=Nc2ccc(N3CCOCC3)cc2)c(O)c1 the Potency was inconclusive: 31.6 µM [inhibitor, single point]. With CC1CC(C)(C)CC2(C1)NC(=S)N(c1ccccc1)N2 (stereo unspecified) the Potency was inconclusive: 20 µM [inhibitor, partial curve]. With CC(C)=CCOc1ccc(/C=C/C(=O)c2ccc(OCC=C(C)C)cc2OCC(=O)O)cc1 the Potency was inconclusive: 35.5 µM [inhibitor, single point]. With Cn1cccc1Cc1nnc(SCC(=O)N2CCCC2)n1CCc1ccccc1 the Potency was “inactive”. CN1/C(=C/C(=O)c2cccs2)Sc2ccccc21 was tested, and the Potency was inconclusive: 12.6 µM [inhibitor, partial curve]. Cc1cccc(NC(=S)NNC(=S)NCc2ccccc2)c1 was tested, and the Potency was inconclusive: 5.01 µM [inhibitor, partial curve]. For COC(=O)c1ccc(-c2nn(C)c(=O)c3ccccc23)cc1, the Potency was “inactive”. In the case of Cc1ccc(N=Nc2c(O)c(S(=O)(=O)O)cc3cc(S(=O)(=O)O)ccc23)c(C)c1, the activity change, negative = inhibition was inactive: -13% [at 11.4 µM]. In the case of CCOc1cc(/C=C2/C(=O)N(c3ccccc3)N=C2C)ccc1OC(=O)c1ccco1, the Potency was inconclusive: 5.01 µM [inhibitor, full curve]. For FC(F)(F)c1nnc2c(Sc3ccccc3)nc3ccccc3n12, the Potency was “inactive”. In the case of COC(=O)C1=C(C)Nc2ccc(C)cc2S1, the Potency was active: 6.31 µM. For O=C1OC(c2cccs2)=N/C1=C\c1ccc(-c2cccc(Cl)c2)o1, the Potency was inconclusive: 31.6 µM [inhibitor, single point]. With CN(C)c1ccc(/C=N/n2ncc3ccccc32)cc1 the Potency was “inactive”. In the case of CC(=O)NC(=S)Nc1ccc(NC(=O)COc2ccc(Cl)cc2Cl)cc1, the Potency was inconclusive: 20 µM [inhibitor, partial curve]. In the case of COc1ccc(-n2nc(C(=O)NCC(=O)Nc3ccccn3)c3ccccc3c2=O)cc1Cl, the Potency was inconclusive: 25.1 µM [inhibitor, single point]. COc1ccc(NCc2nnc(SCC(=O)Nc3ccccc3OC)o2)cc1 was tested, and the Potency was “inactive”. In the case of Cc1cc(C)n(CC(=O)Nc2ccccc2)n1, the Potency was inconclusive: 0.316 µM [inhibitor, full curve, poor fit]. O=C(CSc1nnc(-c2ccc(Cl)cc2)n1Cc1ccco1)Nc1ccc2c(c1)OCCO2 was tested, and the Potency was “inactive”. With CCn1c(C)cc(/C=C2\NC(=O)N(CC(=O)Nc3cccc(C)c3)C2=O)c1C the Potency was inconclusive: 1.26 µM [inhibitor, full curve, poor fit]. For CCCCOC1(c2ccccc2)NC(=S)NN=C1c1ccccc1 (stereo unspecified), the Potency was inconclusive: 12.6 µM [inhibitor, partial curve]. In the case of Cn1c(NC(=O)c2ccc(Cl)cc2)c(-c2ccccn2)c(=O)c2ccccc21, the Potency was inconclusive: 10 µM [inhibitor, partial curve]. CCOc1ccccc1-n1nnnc1SCC(=O)NC(=O)Nc1ccc2c(c1)OCCO2 was tested, and the Potency was inconclusive: 12.6 µM [inhibitor, partial curve]. For O=c1c2ccccc2sc2nc(C3CCCCC3)n(Cc3ccco3)c(=O)c12, the Potency was inconclusive: 12.6 µM [inhibitor, partial curve]. For Nc1c(-c2cccc(Cl)c2)cnn1-c1cccc(C(F)(F)F)c1, the Potency was “inactive”. For C=CCn1c(-c2ccccc2)c[nH]c1=S, the Potency was inconclusive: 25.1 µM [inhibitor, single point]. COc1ccc(-c2csc3nc(-c4ccccc4F)oc(=O)c23)cc1OC was tested, and the Potency was inconclusive: 39.8 µM [inhibitor, single point]. In the case of Cc1cccc(NC(=S)NC(=O)CCc2ccccc2)c1, the Potency was inconclusive: 20 µM [inhibitor, partial curve]. For CC(C)CCn1c(SCC(=O)N2CC(=O)Nc3ccccc32)nc2scc(-c3cccs3)c2c1=O, the Potency was inconclusive: 25.1 µM [inhibitor, single point]. With Cc1ccc2nc(-c3ccc(NC(=S)NC(=O)C(C)C)cc3)sc2c1 the Potency was inconclusive: 15.8 µM [inhibitor, partial curve]. CC1(C)C(O)C=C[C@@]2(C)C1CC(=O)O[C@@]1(C)C3=CC(=O)OC(c4ccoc4)[C@]3(C)CCC21 (stereo partly specified) was tested, and the Potency was “inactive”. In the case of CCOC(=O)c1c(N)sc(=S)c2c1CCC2, the Potency was inconclusive: 39.8 µM [inhibitor, single point]. In the case of NS(=O)(=O)c1ccc2c(c1)C1C=CCC1C(C1CC=CCC1)N2 (stereo unspecified), the Potency was inconclusive: 39.8 µM [inhibitor, single point]. With Cc1cc(C(F)F)n2nc(C(=O)Nc3sc4c(c3C#N)CCC(C)C4)nc2n1 (stereo unspecified) the Potency was inconclusive: 0.199 µM [inhibitor, full curve]. CN1/C(=N\O)c2cccc3cccc1c23 was tested, and the Potency was inconclusive: 12.6 µM [inhibitor, partial curve]. COC(=O)CON1C(=O)c2ccccc2C1=O was tested, and the Potency was “inactive”. With CC1=C(C)CS(=O)N(S(=O)(=O)c2ccc(Cl)cc2)C1 (stereo unspecified) the Potency was inconclusive: 15.8 µM [inhibitor, partial curve]. In the case of CCCNC(=S)Nc1ccc(Oc2ccccc2)cc1, the Potency was inconclusive: 25.1 µM [inhibitor, single point]. Cc1cc(C)c(S(=O)(=O)/N=C2\C=CC(=O)C(Cl)=C2)c(C)c1 was tested, and the Potency was inconclusive: 12.6 µM [inhibitor, partial curve]. N#C/C(=C/c1ccc(N2CCOCC2)o1)c1ccc(Cl)cc1 was tested, and the Potency was active: 10 µM. In the case of Nc1ncnc2c1ncn2[C@@H]1O[C@H](COP(=O)(O)O)[C@@H](O)[C@@H]1O, the Potency was “inactive”. CCN1C=CC(=C2C(=O)c3ccccc3C2=O)C=C1 was tested, and the Potency was inconclusive: 25.1 µM [inhibitor, single point]. In the case of Cc1ccc(-c2ccc(/C=N/NC(=S)Nc3ccccc3)o2)cc1[N+](=O)[O-], the Potency was inconclusive: 31.6 µM [inhibitor, single point]. With COC(=O)c1ccccc1CON1C(=O)C(C)(C)N(OCc2ccccc2C(=O)OC)C(=O)C1(C)C the Potency was inconclusive: 0.158 µM [inhibitor, full curve, poor fit]. For COc1ccccc1C1CC(=O)Oc2cc3c(cc21)OCO3 (stereo unspecified), the Potency was inconclusive: 28.2 µM [inhibitor, partial curve]. In the case of C=CCSc1nc2sc3c(c2c(=O)n1CC)CCc1ccccc1-3, the Potency was inconclusive: 31.6 µM [inhibitor, single point]. In the case of C[C@H](C(=O)c1ccncc1)c1ccccn1, the activity change, negative = inhibition was inactive: -4.1% [at 11.4 µM]. Cc1nc2c(c(=O)n1CCC1=CCCCC1)c1nc3ccccc3nc1n2/N=C/c1ccco1 was tested, and the Potency was inconclusive: 15.8 µM [inhibitor, partial curve]. For Cc1nonc1NC(=O)c1ccc(Cl)c(S(=O)(=O)N2CCCCC2)c1, the Potency was “inactive”. With CCc1nnc(SCC(=O)NC2CCCC2)nc1CC the Potency was “inactive”. With Cn1ncc(N=Cc2ccccc2)c1C(=O)Nc1cccc(Cl)c1 the Potency was “inactive”. With COC(=O)c1c(NC(=O)Cn2nc(C(F)F)cc2C(F)F)sc(C)c1C the Potency was “inactive”. In the case of CCN(CC)S(=O)(=O)c1cc(C(=O)OCC(=O)c2ccc3c(c2)NC(=O)CO3)ccc1Cl, the Potency was inconclusive: 39.8 µM [inhibitor, single point].
